Where “and” joins values, the source holds several entries; their conditions need not be identical. Identical values can stand only once. Among all 270,000 compounds or so, about 5,800 (2.1%) were called active. Inconclusive means that the source gave no clear call. Such entries were picked first, then a sample of the others. The call rests on the fitted dose curve; in most records, active means well fitted inhibition curve with a large enough effect; inconclusive means small, poorly fitted or top-dose-only effect; inactive means flat fitted curve, though single readings scatter. Potencies of inconclusive entries are doubtful fits and often do not repeat.
Target: Microtubule-associated protein tau (Homo sapiens) (UniProt P10636)
Assay: qHTS for Inhibitors of Tau Fibril Formation, Thioflavin T Binding; further: nearly all actives have a fitted effect of over 55% in size
Settings: recombinant tau K18 P301L (four-repeat tau fragment), heparin-induced fibrillization, ThT fluorescence; series mostly up to 57.4 µM
Method in brief: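 Recombinant human tau K18 fragment […] carrying P301L, 15 uM unlabeled plus 0.24 uM Alexa 594-labeled, was fibrillized with 20 uM heparin in 100 mM sodium acetate pH 7 for 6 hr at 37 C; 30 uM ThT fluorescence read after 1 hr.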
On the % scale 0 is the no-effect control and ±100 the full control effect; potency means the concentration at half of the fitted maximal effect; tags describe the fitted curve by direction and shape.

Chain of UniProt P10636 (P10636 whole entry, looked up): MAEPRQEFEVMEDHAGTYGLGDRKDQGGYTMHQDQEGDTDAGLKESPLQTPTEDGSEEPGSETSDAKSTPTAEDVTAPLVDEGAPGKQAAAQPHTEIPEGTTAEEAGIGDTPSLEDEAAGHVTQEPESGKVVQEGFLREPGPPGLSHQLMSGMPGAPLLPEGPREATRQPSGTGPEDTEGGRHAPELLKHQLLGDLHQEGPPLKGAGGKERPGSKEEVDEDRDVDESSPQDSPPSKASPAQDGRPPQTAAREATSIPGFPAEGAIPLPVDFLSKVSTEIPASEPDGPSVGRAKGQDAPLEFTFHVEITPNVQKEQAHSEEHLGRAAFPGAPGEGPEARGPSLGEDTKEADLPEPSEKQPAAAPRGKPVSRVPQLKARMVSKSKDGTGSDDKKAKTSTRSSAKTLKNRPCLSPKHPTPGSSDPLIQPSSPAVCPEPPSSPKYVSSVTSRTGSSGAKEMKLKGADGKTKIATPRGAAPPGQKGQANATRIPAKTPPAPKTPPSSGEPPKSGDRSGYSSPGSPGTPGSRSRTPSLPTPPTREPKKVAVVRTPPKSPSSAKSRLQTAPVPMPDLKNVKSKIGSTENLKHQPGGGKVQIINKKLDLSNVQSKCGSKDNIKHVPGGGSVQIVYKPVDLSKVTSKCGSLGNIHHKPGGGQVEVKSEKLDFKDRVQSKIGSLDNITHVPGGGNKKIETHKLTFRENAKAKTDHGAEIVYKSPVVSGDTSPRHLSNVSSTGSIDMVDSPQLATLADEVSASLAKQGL

Question: How did the Potency turn out when `O=C(NC(=S)Nc1cc(-c2nc3ccccc3[nH]2)ccc1Cl)c1ccc2c(c1)OCO2` was run?
Answer: inconclusive: 3.16 µM [inhibitor, partial curve, poor fit]

Question: Which Potency does the source give for `Cc1cc(C)c(CSc2nnc(C)n3c2cc2occc23)c(C)c1` here?
Answer: inconclusive: 25.1 µM [inhibitor, single point]

Question: With `Cc1cccc(-n2ncc3c(Nc4ccc(Oc5ccc(Cl)cc5)cc4)ncnc32)c1` as the molecule, how does the Potency read?
Answer: inactive

Question: How did the Potency turn out when `COc1cc(-c2nc3nc[nH]n3c2Nc2ccc(C(C)C)cc2)ccc1O` was run?
Answer: active: 25.1 µM

Question: `Cc1ccc(-c2c[nH]c(=S)n2-c2ccccc2)cc1` was tested. Which Potency did it give?
Answer: inactive

Question: With `COc1ccc(-c2cc(C(=O)N(C)Cc3ccccc3)no2)cc1OC` as the molecule, how does the Potency read?
Answer: inconclusive: 28.2 µM [inhibitor, partial curve]

Question: With `CCn1nnc(NC(=O)CSc2ccc(Cl)cc2)n1` as the molecule, how does the Potency read?
Answer: inactive

Question: Which Potency does the source give for `CC(C)Sc1nc(NCc2ccco2)c2c3c(sc2n1)COC(C)(C)C3` here?
Answer: inconclusive: 28.2 µM [inhibitor, single point]

Question: With `O=C(NCCc1csc(-c2ccccc2)n1)c1ccc(Br)o1` as the molecule, how does the Potency read?
Answer: inconclusive: 22.4 µM [inhibitor, partial curve, poor fit]

Question: How did the Potency turn out when `CCOc1cccc(-c2cc(C(=O)N/N=C/c3ccc(OC)c(CN4CCOCC4)c3)c3ccccc3n2)c1` was run?
Answer: inactive

Question: With `C=CCn1c(CSc2nc3ccccc3s2)nnc1SCC(=O)NCc1ccccc1` as the molecule, how does the Potency read?
Answer: inconclusive: 31.6 µM [inhibitor, single point]

Question: Which Potency does the source give for `COc1ccc(NC(=S)NCCc2c[nH]c3ccccc23)cc1` here?
Answer: inconclusive: 35.5 µM [inhibitor, single point]

Question: `Cc1cc(N2CCCCC2)nc2ccc(NC(=O)c3ccc(Br)o3)cc12` was tested. Which Potency did it give?
Answer: active: 8.91 µM

Question: With `Cc1ccc(NS(=O)(=O)c2ccc(CCC(=O)NCc3cccnc3)cc2)cc1` as the molecule, how does the Potency read?
Answer: inactive

Question: How did the Potency turn out when `Cc1ccc(C)n1-c1c(C(=O)NCCC(C)C)sc2ncccc12` was run?
Answer: inactive

Question: Which Potency does the source give for `Cc1ccc(O)c(C(=O)c2cnn(-c3ccccc3)c2)c1` here?
Answer: inconclusive: 2 µM [inhibitor, partial curve]

Question: `COc1ccc(C(=O)NCCn2cc(SCC(=O)Nc3cccc(C)c3)c3ccccc32)cc1` was tested. Which Potency did it give?
Answer: inconclusive: 15.8 µM [inhibitor, partial curve]

Question: For `COc1cc(NC(=O)CSc2nnc(-c3ccncc3)n2C2CCCCC2)ccc1NC(=O)c1ccco1`, which Potency is on record?
Answer: inconclusive: 17.8 µM [inhibitor, partial curve]

Question: `O=C(Cn1nnc(-c2ccc(CN3CCOCC3)cc2)n1)N1CCCc2ccccc21` was tested. Which Potency did it give?
Answer: inactive

Question: Which Potency does the source give for `O=C(NCCNc1ccc(Cl)cc1[N+](=O)[O-])c1cccnc1` here?
Answer: inconclusive: 14.1 µM [inhibitor, partial curve]

Question: For `CC(C)C(=O)N(c1ccc2oc(=O)sc2c1)S(=O)(=O)c1cccs1`, which Potency is on record?
Answer: inconclusive: 31.6 µM [inhibitor, partial curve]

Question: Which Potency does the source give for `CCC(C)NC(=O)c1ccc2c(Cl)c3c(nc2c1)CCC3` (stereo not given) here?
Answer: inactive

Question: For `CCc1ccc(C(=O)c2cn(CC(=O)NCCc3ccc(OC)c(OC)c3)c3nc(C)ccc3c2=O)cc1`, which Potency is on record?
Answer: inconclusive: 35.5 µM [inhibitor, single point]

Question: `Fc1ccc(C2=NN(c3ccccc3)C(c3ccco3)C2)cc1` (stereo not given) was tested. Which Potency did it give?
Answer: inconclusive: 11.2 µM [inhibitor, partial curve]

Question: Which Potency does the source give for `CC(C)OCCCNC(=O)C1CCC(CNS(=O)(=O)c2ccccc2)CC1` (stereo not given) here?
Answer: inactive

Question: How did the Potency turn out when `CCCC1CCC(c2ccc(C(=O)NN)cc2)CC1` (stereo not given) was run?
Answer: inconclusive: 22.4 µM [inhibitor, partial curve]

Question: `N#C/C(=C\c1c(N(Cc2ccccc2)Cc2ccccc2)nc2ccccn2c1=O)C(N)=O` was tested. Which Potency did it give?
Answer: inconclusive: 20 µM [inhibitor, partial curve]

Question: How did the Potency turn out when `CC(NC(=O)c1ccc(N)cc1)c1ccccc1` (stereo not given) was run?
Answer: inactive

Question: Which Potency does the source give for `CCOCCCNC(=O)NC(C)c1c(-n2cccc2)sc2c1CCN(CC)C2` (stereo not given) here?
Answer: inactive

Question: With `CCCCOc1ccc(/C=N/NC(=O)c2csc(C)c2C)cc1` as the molecule, how does the Potency read?
Answer: inconclusive: 2.51 µM [inhibitor, full curve]

Question: With `COc1ccc(OC)c(S(=O)(=O)N2CCC(c3ccncc3)CC2)c1` as the molecule, how does the Potency read?
Answer: inactive

Question: `Cc1cccc(Nc2nc(N)c([N+](=O)[O-])c(N3CCC(C)CC3)n2)c1` was tested. Which Potency did it give?
Answer: inconclusive: 12.6 µM [inhibitor, partial curve]

Question: With `Cc1cccc(NC(=O)NCCN2C(=O)C3C4C=CC(C4)C3C2=O)c1` (stereo not given) as the molecule, how does the Potency read?
Answer: inactive

Question: How did the Potency turn out when `Cn1ccc(C(=O)Nc2ccc(Br)cc2Br)n1` was run?
Answer: inactive

Question: For `CCOC(=O)c1ccccc1NC(=O)Cn1c(=O)n(Cc2nc(-c3ccccc3)no2)c(=O)c2ccccc21`, which Potency is on record?
Answer: inactive

Question: How did the Potency turn out when `O=C(C/C=N/OCc1c(Cl)cccc1Cl)c1ccc(Cl)cc1` was run?
Answer: inconclusive: 44.7 µM [inhibitor, partial curve, poor fit]

Question: With `Cc1ccc(N(CC(O)COCc2ccco2)S(=O)(=O)c2ccc(C)cc2)cc1` (stereo not given) as the molecule, how does the Potency read?
Answer: active: 31.6 µM

Question: Which Potency does the source give for `Cc1ccc(N/N=C2/CCCNC2=O)cc1` here?
Answer: inactive

Question: With `Cc1cc(/C=N/NC(=O)Cn2c3ccccc3c(=O)c3ccccc32)c(C)n1-c1ccc(Cl)cc1` as the molecule, how does the Potency read?
Answer: inconclusive: 7.94 µM [inhibitor, full curve, poor fit]

Question: How did the Potency turn out when `CC(=O)Nc1ccc(Br)c2ccccc12` was run?
Answer: inactive

Question: How did the Potency turn out when `O=C(COC(=O)c1ccc2c(c1)C(=O)N(c1cccc3ncccc13)C2=O)c1ccc(Cl)cc1` was run?
Answer: inconclusive: 8.91 µM [inhibitor, partial curve]

Question: For `O=C(CSc1nnnn1C1CCCCC1)NCc1ccc2c(c1)OCO2`, which Potency is on record?
Answer: inactive

Question: With `Cc1ccc(C2C=C(c3ccc(Cl)cc3)Nc3nc(NS(=O)(=O)c4ccccc4)nn32)cc1` (stereo not given) as the molecule, how does the Potency read?
Answer: inconclusive: 31.6 µM [inhibitor, partial curve]

Question: Which Potency does the source give for `COc1cc2oc(=O)cc(-c3ccc(-c4ccc(O)cc4)cc3)c2c(OC)c1OC` here?
Answer: inconclusive: 12.6 µM [inhibitor, partial curve, poor fit]

Question: Which Potency does the source give for `Cc1ccc(Nc2nc3c([nH]2)c(=O)n(C)c(=O)n3C)cc1` here?
Answer: inconclusive: 17.8 µM [inhibitor, partial curve]

Question: `COC(=O)CN1C(=O)N/C(=C/c2ccc(OC)cc2)C1=O` was tested. Which Potency did it give?
Answer: inactive

Question: `COC(=O)C1=C(O)/C(=C\c2cc(C)n(-c3ccc(F)cc3)c2C)N=C1C` was tested. Which Potency did it give?
Answer: inconclusive: 25.1 µM [inhibitor, partial curve]

Question: Which Potency does the source give for `O=C(N/N=C/c1cn(Cc2ccccc2)c2ccccc12)c1cccnc1` here?
Answer: inconclusive: 22.4 µM [inhibitor, single point]

Question: How did the Potency turn out when `CCC(=O)N1CCN(c2ccc(NC(=O)c3ccc([N+](=O)[O-])o3)cc2Cl)CC1` was run?
Answer: active: 11.2 µM

Question: How did the Potency turn out when `Cc1ccc(NC(=O)c2cccc(N(C)C)c2)cc1NC(=O)c1ccc(O)cc1` was run?
Answer: inconclusive: 15.8 µM [inhibitor, partial curve] and inconclusive: 39.8 µM [inhibitor, partial curve]

Question: For `CCOC(=O)c1[nH]c2ccc(F)cc2c1NC(=O)CN1CCN(C/C=C/c2ccccc2)CC1`, which Potency is on record?
Answer: inconclusive: 22.4 µM [inhibitor, partial curve]

Question: Which Potency does the source give for `CC1(C)Cc2ccccc2-c2nnc(SCc3ccccc3)n21` here?
Answer: inactive

Question: With `COc1ccccc1-c1nc2ccccc2nc1-c1ccccc1OC` as the molecule, how does the Potency read?
Answer: inactive

Question: How did the Potency turn out when `Cc1ccc(-n2c([S-])c(C(=O)NC(C)c3ccccc3)[n+]3ccccc23)cc1` (stereo not given) was run?
Answer: inactive

Question: For `CCC(Oc1ccccc1)C(=O)Nc1nnc(S(=O)(=O)Nc2ccccc2)s1` (stereo not given), which Potency is on record?
Answer: inconclusive: 14.1 µM [inhibitor, partial curve]

Question: Which Potency does the source give for `O=C(O)/C=C/C(=O)c1ccc(O)cc1` here?
Answer: inconclusive: 14.1 µM [inhibitor, partial curve]

Question: For `Nc1nn(-c2ccccc2)c(N)c1N=Nc1ccccc1F`, which Potency is on record?
Answer: active: 4.47 µM

Question: How did the Potency turn out when `Cc1nn(-c2cc(N3CCCCC3)ccc2N)c(=O)c2ccccc12` was run?
Answer: inconclusive: 25.1 µM [inhibitor, single point]

Question: `CCCCn1nnc(N(C(=O)c2cccs2)C(=O)c2cccs2)n1` was tested. Which Potency did it give?
Answer: inconclusive: 8.91 µM [inhibitor, partial curve, poor fit]

Question: How did the Potency turn out when `C=CCn1c(SCC(=O)c2ccccc2)nnc1-c1ccc2c(c1)OCO2` was run?
Answer: inconclusive: 17.8 µM [inhibitor, partial curve]

Question: With `Cc1ccc(/C=c2\sc3nc(-c4cccnc4)nn3c2=O)cc1` as the molecule, how does the Potency read?
Answer: inconclusive: 20 µM [inhibitor, partial curve]

Question: `COC(=O)C1CCN(c2c([N+](=O)[O-])cc(C(F)(F)F)cc2[N+](=O)[O-])CC1` was tested. Which Potency did it give?
Answer: inconclusive: 22.4 µM [inhibitor, partial curve, poor fit]

Question: How did the Potency turn out when `Clc1cccc(/C=N/Nc2nnc(Cl)c3ccccc23)c1` was run?
Answer: inconclusive: 1.12 µM [inhibitor, full curve]

Question: How did the Potency turn out when `CC(C)C(=O)N1CCN(c2ccc(NC(=O)c3cccs3)cc2)CC1` was run?
Answer: inconclusive: 8.91 µM [inhibitor, partial curve]

Question: `C/C(CCN1CCc2nc(-c3ccccc3)c(-c3ccccc3)cc2C1)=N\OC[C@@H](O)COCc1ccco1` was tested. Which activity, negative = inhibition did it give?
Answer: inactive: -8.94% [at 11.5 µM]

Question: Which Potency does the source give for `CCNC(=O)c1c(N)sc2c1CCCCC2` here?
Answer: active: 31.6 µM

Question: How did the Potency turn out when `COc1ccc(-c2nnn3c2nc(N2CCCC(C)C2)c2ccccc23)cc1` (stereo not given) was run?
Answer: inconclusive: 7.94 µM [inhibitor, full curve, poor fit]

Question: How did the Potency turn out when `COc1ccc(N2CCN(C(=O)CCS(=O)(=O)c3cc4c(cc3Cl)NC(=O)CO4)CC2)cc1` was run?
Answer: inactive

Question: For `CC(C)Oc1ccc(OCCn2c(=S)[nH]c3c(N)ncnc32)cc1`, which Potency is on record?
Answer: inconclusive: 25.1 µM [inhibitor, partial curve]

Question: Which Potency does the source give for `COC(=O)c1sc(NC(=S)NC(=O)c2ccccc2F)nc1C` here?
Answer: inconclusive: 35.5 µM [inhibitor, partial curve, poor fit]
